This note sets out measurements from the GPR68 mutational scans of Howard et al. (2025).

B1: GPR68, Q15743 (parent)
chain: MGNITADNSSMSCTIDHTIHQTLAPVVYVTVLVVGFPANCLSLYFGYLQIKARNELGVYLCNLTVADLFYICSLPFWLQYVLQHDNWSHGDLSCQVCGILLYENIYISVGFLCCISVDRYLAVAHPFRFHQFRTLKAAVGVSVVIWAKELLTSIYFLMHEEVIEDENQHRVCFEHYPIQAWQRAINYYRFLVGFLFPICLLLASYQGILRAVRRSHGTQKSRKDQIQRLVLSTVVIFLACFLPYHVLLLVRSVWEASCDFAKGVFNAYHFSLLLTSFNCVADPVLYCFVSETTHRDLARLRGACLAFLTCSRTGRAREAYPLGAPEASGKSGAQGEEPELLTKLHPAFQTPNSPGSGGFPTGRLA

Data set [1] covers variants of B1. The experiment in a line: cAMP reporter score (Enrich2 score, wild type = 0); higher = more signal; HEK293T, FACS bins.
Data set [2] covers variants of B1. The data set is described as follows: surface expression score (Enrich2 score, wild type = 0); higher = more signal; HEK293T, FACS bins.

The least precise scores are not listed. Two further conditions of the source, in which the scores hardly spread, are not listed. In variant names, del marks residues removed and ins residues inserted between the two positions. For some of these results: How much ogerin was present is not stated here.

Take S116_V117insGSG: the cAMP reporter score in data set [1] (pH 5.5) was -1.1; in data set [1] (pH 6) it was -1.75; in data set [1] (pH 6, modulator: ogerin) it was -2.08; in data set [1] (pH 6.5, modulator: ogerin) it was -1.54. Further, the surface expression score in data set [2] was -2.01.

As to L121I, the cAMP reporter score in data set [1] (pH 5.5) is -0.03; in data set [1] (pH 6, modulator: ogerin), 0.187; in data set [1] (pH 6.5, modulator: ogerin), 0.565. In addition, the surface expression score in data set [2] is -0.237.

As to L121P, the cAMP reporter score in data set [1] (pH 5.5) was -0.803; in data set [1] (pH 6), -0.252; in data set [1] (pH 6, modulator: ogerin), -0.828; in data set [1] (pH 6.5, modulator: ogerin), -0.719. In addition, in data set [2], the surface expression score is -0.672.

As to L121Y, the cAMP reporter score in data set [1] (pH 5.5) was -0.448; in data set [1] (pH 6, modulator: ogerin) it was -1; in data set [1] (pH 6.5, modulator: ogerin), -0.574. The surface expression score in data set [2] is -2.95.

With L121Q, the cAMP reporter score in data set [1] (pH 5.5) was -1.58; in data set [1] (pH 6), -1.54; in data set [1] (pH 6, modulator: ogerin), -1.55; in data set [1] (pH 6.5, modulator: ogerin), -1.34. Further, the surface expression score in data set [2] was -1.35.

With L121H, the cAMP reporter score is -1.78 in data set [1] (pH 5.5); -0.792 in data set [1] (pH 6, modulator: ogerin); -0.638 in data set [1] (pH 6.5, modulator: ogerin). The surface expression score in data set [2] is -2.71.

Take L121C: the cAMP reporter score was -0.061 in data set [1] (pH 5.5); -0.812 in data set [1] (pH 6); -0.774 in data set [1] (pH 6, modulator: ogerin); 0.117 in data set [1] (pH 6.5, modulator: ogerin). Further, in data set [2], the surface expression score is -1.83.

On to L121S, for which the cAMP reporter score was -1.17 in data set [1] (pH 5.5); -1.63 in data set [1] (pH 6, modulator: ogerin); -1.62 in data set [1] (pH 6.5, modulator: ogerin).

L121M: the cAMP reporter score is -0.582 in data set [1] (pH 5.5); 0.222 in data set [1] (pH 6); -0.657 in data set [1] (pH 6, modulator: ogerin); -0.893 in data set [1] (pH 6.5, modulator: ogerin). Further, in data set [2], the surface expression score was 0.124.

Take L121V: the cAMP reporter score in data set [1] (pH 5.5) was -0.177; in data set [1] (pH 6), -0.817; in data set [1] (pH 6, modulator: ogerin) it was -0.459; in data set [1] (pH 6.5, modulator: ogerin) it was -1.09. In addition, in data set [2], the surface expression score is -1.8.

Consider L121F, for which the cAMP reporter score in data set [1] (pH 5.5) is 0.811; in data set [1] (pH 6, modulator: ogerin), 0.185. Also, the surface expression score in data set [2] was -1.1.

Regarding L121R, the cAMP reporter score in data set [1] (pH 5.5) is -1.34; in data set [1] (pH 6), -0.53; in data set [1] (pH 6.5, modulator: ogerin), -1.68. Further, the surface expression score in data set [2] is -2.15.

As to L121E, the cAMP reporter score in data set [1] (pH 5.5) was -0.154; in data set [1] (pH 6), -1.13; in data set [1] (pH 6, modulator: ogerin), -2.34; in data set [1] (pH 6.5, modulator: ogerin), -1.74. The surface expression score in data set [2] is -1.81.

Regarding L121W, the cAMP reporter score in data set [1] (pH 5.5) was -0.292; in data set [1] (pH 6), -1.49; in data set [1] (pH 6, modulator: ogerin), -0.92; in data set [1] (pH 6.5, modulator: ogerin), -1.77.

As for L121A, the cAMP reporter score in data set [1] (pH 5.5) is 0.963; in data set [1] (pH 6) it was 0.286; in data set [1] (pH 6, modulator: ogerin) it was -0.753. Also, in data set [2], the surface expression score was -1.56.

For the variant L121K, the cAMP reporter score in data set [1] (pH 5.5) was -2.36; in data set [1] (pH 6.5, modulator: ogerin) it was -0.844. Also, in data set [2], the surface expression score was -2.49.

For L121G, the cAMP reporter score in data set [1] (pH 5.5) was -1.71; in data set [1] (pH 6), -1.28; in data set [1] (pH 6, modulator: ogerin) it was -1.02; in data set [1] (pH 6.5, modulator: ogerin) it was -1.21. Moreover, the surface expression score in data set [2] was -2.49.

For the variant L121D, the values for the cAMP reporter score in data set [1] (pH 5.5) and in data set [1] (pH 6) were -0.389 and -0.218, respectively. Besides, the surface expression score in data set [2] is -1.56.

On to V117_D118del, for which the cAMP reporter score in data set [1] (pH 5.5) is -1.48; in data set [1] (pH 6) it was -1.47; in data set [1] (pH 6, modulator: ogerin) it was -1.2; in data set [1] (pH 6.5, modulator: ogerin) it was -1.15. In addition, the surface expression score in data set [2] is -2.14.

With V109del, the cAMP reporter score in data set [1] (pH 5.5) was -1.44; in data set [1] (pH 6, modulator: ogerin) it was -1.84; in data set [1] (pH 6.5, modulator: ogerin), -1.74. For the same variant, the surface expression score in data set [2] is -3.26.

Regarding A122_V123insG, the cAMP reporter score in data set [1] (pH 5.5) is -1.6; in data set [1] (pH 6), -0.195; in data set [1] (pH 6, modulator: ogerin), -1.68; in data set [1] (pH 6.5, modulator: ogerin), -0.403. Further, the surface expression score in data set [2] was -2.25.

R128_H130del: the cAMP reporter score in data set [1] (pH 5.5) is -0.777; in data set [1] (pH 6), -1.35; in data set [1] (pH 6, modulator: ogerin) it was -1.36; in data set [1] (pH 6.5, modulator: ogerin), -1.3. In addition, the surface expression score in data set [2] is -2.75.

With G110Q, the cAMP reporter score is 1.49 in data set [1] (pH 5.5); 3.15 in data set [1] (pH 6); -0.401 in data set [1] (pH 6, modulator: ogerin); 1.29 in data set [1] (pH 6.5, modulator: ogerin).

For the variant G110W, the cAMP reporter score amounted to 2.74 in data set [1] (pH 5.5) and 2.34 in data set [1] (pH 6, modulator: ogerin). For the same variant, the surface expression score in data set [2] was 2.32.

On to G110E, for which the cAMP reporter score was -0.452 in data set [1] (pH 5.5); 0.735 in data set [1] (pH 6); -0.737 in data set [1] (pH 6, modulator: ogerin); -0.407 in data set [1] (pH 6.5, modulator: ogerin). In addition, the surface expression score in data set [2] was -0.592.

Take G110K: the cAMP reporter score in data set [1] (pH 5.5) was -0.087; in data set [1] (pH 6, modulator: ogerin), 0.245; in data set [1] (pH 6.5, modulator: ogerin), -0.139. Further, in data set [2], the surface expression score is -0.939.

Take G110L: the cAMP reporter score in data set [1] (pH 5.5) was -0.278; in data set [1] (pH 6, modulator: ogerin), -0.299; in data set [1] (pH 6.5, modulator: ogerin), -0.977. Also, in data set [2], the surface expression score was -1.86.

Regarding G110A, the cAMP reporter score in data set [1] (pH 5.5) worked out at 0.613; in data set [1] (pH 6), 0.252; in data set [1] (pH 6, modulator: ogerin), 0.343; in data set [1] (pH 6.5, modulator: ogerin) it was 0.545. Also, in data set [2], the surface expression score turned out to be 0.385.

For the variant G110M, the cAMP reporter score in data set [1] (pH 5.5) came to 0.092; in data set [1] (pH 6), 3.45; in data set [1] (pH 6, modulator: ogerin), 0.564. For the same variant, the surface expression score in data set [2] is -1.74.

For the variant G110P, the cAMP reporter score was -1.07 in data set [1] (pH 5.5); 0.263 in data set [1] (pH 6); -2.56 in data set [1] (pH 6.5, modulator: ogerin). Also, in data set [2], the surface expression score is -2.95.

For the variant G110D, the cAMP reporter score is 2.16 in data set [1] (pH 5.5) and 1.09 in data set [1] (pH 6). Further, the surface expression score in data set [2] is 2.12.

For G110Y, the cAMP reporter score came to 0.256 in data set [1] (pH 5.5); 0.184 in data set [1] (pH 6, modulator: ogerin); 0.557 in data set [1] (pH 6.5, modulator: ogerin). Also, in data set [2], the surface expression score was -0.42.

G110I: the cAMP reporter score in data set [1] (pH 5.5) was 0.562; in data set [1] (pH 6) it was 1.01; in data set [1] (pH 6, modulator: ogerin), -0.793; in data set [1] (pH 6.5, modulator: ogerin) it was -0.423. The surface expression score in data set [2] was -1.46.

Turning to G110F, the cAMP reporter score is 2.93 in data set [1] (pH 5.5) and 0.406 in data set [1] (pH 6.5, modulator: ogerin). For the same variant, in data set [2], the surface expression score is -0.409.

For G110H, the cAMP reporter score in data set [1] (pH 5.5) was 1.91; in data set [1] (pH 6), 4.5; in data set [1] (pH 6, modulator: ogerin) it was 1.75; in data set [1] (pH 6.5, modulator: ogerin), 1.84. Further, the surface expression score in data set [2] came out at 0.378.
